Patent publication US20220267438A1 (Janssen / Centocor, published 2022)

B1: BGCB491 (other)
heavy: QVQLQQSGPRLVRPSQTLSLTCAISGDSVFNNNAAWSWIRQSPSRGLEWLGRTYYRSKWLYDYAVSVKSRITVNPDTSRNQFTLQLNSVTPEDTALYYCARGYSSSFDYWGQGTLVTVSSASTKGPSVFPLAPSSKSTSGGTAALGCLVKDYFPEPVTVSWNSGALTSGVHTFPAVLQSSGLYSLSSVVTVPSSSLGTQTYICNVNHKPSNTKVDKKVEPKSCDKTHTCPPCPAPEAAGGPSVFLFPPKPKDTLMISRTPEVTCVVVSVSHEDPEVKFNWYVDGVEVHNAKTKPREEQYNSTYRVVSVLTVLHQDWLNGKEYKCKVSNKALPAPIEKTISKAKGQPREPQVYTLPPSREEMTKNQVSLSCAVKGFYPSDIAVEWESNGQPENNYKTTPPVLDSDGSFFLVSKLTVDKSRWQQGNVFSCSVMHEALHNRFTQKSLSLSPGKGGGGSGGGGSGGGGSGGGGS[letters of about 100 residues not shown]QFPHTFGQGTKLEIKGGSEGKSSGSGSESKSTGGSQVTLKESGPVLVKPTETLTLTCTVSGFSLTNIRMSVSWIRQPPGKALEWLAHIFSNDEKSYSTSLKSRLTISRDTSKSQVVLTLTNVDPVDTATYYCARMRLPYGMDVWGQGTTVTVSS
light: QSALTQPASVSGSPGQSITISCTGTSSNIGTYKFVSWYQQHPDKAPKVLLYEVSKRPSGVSSRFSGSKSGNTASLTISGLQAEDQADYHCVSYAGSGTLLFGGGTKLTVLGQPKAAPSVTLFPPSSEELQANKATLVCLISDFYPGAVTVAWKADSSPVKAGVETTTPSKQSNNKYAASSYLSLTPEQWKSHRSYSCQVTHEGSTVEKTVAPTECS
chain: EIVLTQSPGTLSLSPGERATLSCRASQSISSSFLTWYQQKPGQAPRLLIYGASSRATGIPDRFSGGGSGTDFTLTISRLEPEDFAVYYCQHYGSSPMYTFGQGTKLEIKGGSEGKSSGSGSESKSTGGS[letters of about 100 residues not shown]DEGYSSGHYYGMDVWGQGTTVTVSSEPKSSDKTHTCPPCPAPEAAGGPSVFLFPPKPKDTLMISRTPEVTCVVVSVSHEDPEVKFNWYVDGVEVHNAKTKPREEQYNSTYRVVSVLTVLHQDWLNGKEYKCKVSNKALPAPIEKTISKAKGQPREPQVYTLPPSREEMTKNQVSLWCLVKGFYPSDIAVEWESNGQPENNYKTTPPVLDSDGSFFLYSKLTVDKSRWQQGNVFSCSVMHEALHNHYTQKSLSLSPGK
notes: Trispecific IgG1 antibody (L234A, L235A, D265S); Heavy chain 1 = anti-CD3 (CD3B376) Fab heavy chain, hole and RF mutations, with C-terminal anti-GPRC5D scFv (GC5B680); Heavy chain 2 = anti-BCMA scFv (BCMB519) - Fc knob; also called JNJ-79635322; BCMA×GPRC5D×CD3 trispecific mAb
B2: BGCB463 (other)
heavy: QVQLQQSGPRLVRPSQTLSLTCAISGDSVFNNNAAWSWIRQSPSRGLEWLGRTYYRSKWLYDYAVSVKSRITVNPDTSRNQFTLQLNSVTPEDTALYYCARGYSSSFDYWGQGTLVTVSSASTKGPSVFPLAPSSKSTSGGTAALGCLVKDYFPEPVTVSWNSGALTSGVHTFPAVLQSSGLYSLSSVVTVPSSSLGTQTYICNVNHKPSNTKVDKKVEPKSCDKTHTCPPCPAPEAAGGPSVFLFPPKPKDTLMISRTPEVTCVVVSVSHEDPEVKFNWYVDGVEVHNAKTKPREEQYNSTYRVVSVLTVLHQDWLNGKEYKCKVSNKALPAPIEKTISKAKGQPREPQVYTLPPSREEMTKNQVSLSCAVKGFYPSDIAVEWESNGQPENNYKTTPPVLDSDGSFFLVSKLTVDKSRWQQGNVFSCSVMHEALHNRFTQKSLSLSPGK
light: B1 light
chain: [letters of about 100 residues not shown]QFPHTFGQGTKLEIKGGSEGKSSGSGSESKSTGGSQVTLKESGPVLVKPTETLTLTCTVSGFSLTNIRMSVSWIRQPPGKALEWLAHIFSNDEKSYSTSLKSRLTISRDTSKSQVVLTLTNVDPVDTATYYCARMRLPYGMDVWGQGTTVTVSSEPKSSDKTHTCPPCPAPEAAGGPSVFLFPPKPKDTLMISRTPEVTCVVVSVSHEDPEVKFNWYVDGVEVHNAKTKPREEQYNSTYRVVSVLTVLHQDWLNGKEYKCKVSNKALPAPIEKTISKAKGQPREPQVYTLPPSREEMTKNQVSLWCLVKGFYPSDIAVEWESNGQPENNYKTTPPVLDSDGSFFLYSKLTVDKSRWQQGNVFSCSVMHEALHNHYTQKSLSLSPGKGGSEGKSSGSGSESKSTGGSEIVLTQSPGTLSLSPGERATLSCRASQSISSSFLTWYQQKPGQAPRLLIYGASSRATGIPDRFSGGGSGTDFTLTISRLEPEDFAVYYCQHYGSSPMYTFGQGTKLEIKGGSEGKSSGSGSESKSTGGS[letters of about 100 residues not shown]DEGYSSGHYYGMDVWGQGTTVTVSS
notes: Trispecific IgG1 antibody (L234A, L235A, D265S); Heavy chain 1 = anti-CD3 (CD3B376) Fab heavy chain with hole and RF mutations; also called BGCB463.003; BGCB463.004

How the values were obtained:
[1] = target: T1, CD3W200, recombinant CD3εγ heterodimer construct (human, UniProt P07766 22-118; P09693 23-103); experiment: SPR, CD3 binding after oxidation with metal
T1 construct: also called human CD3 (SPR antigen for BGCB491)

[2] = target: T1, CD3W200, recombinant CD3εγ heterodimer …; experiment: SPR, CD3 binding after pH 8.5 stress
[3] = target: T2, BCMW37 (recombinant human BCMA antigen) (human, UniProt Q02223 1-54, limits assumed); experiment: SPR, BCMA binding after pH 3.5 stress
T2 construct: also called BCMA BCMW37 chain; human BCMA (SPR antigen)
T2 sequence (looked up): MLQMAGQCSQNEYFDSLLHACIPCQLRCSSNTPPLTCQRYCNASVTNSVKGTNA

[4] = target: T2, BCMW37 (recombinant human BCMA antigen); experiment: SPR, BCMA binding, release sample
[5] = target: T3, human CD3 (CD3ε of the TCR/CD3 complex) on primary human pan T cells (human, UniProt P07766); experiment: flow cytometry, human pan T cells, Donor 3, 1 h 37C; Run 3
T3 construct: whole, on cells; On T cells CD3ε stands in the whole TCR/CD3 complex
Method: (§1) For binding of BGCB463 to human and cynomolgus Pan T cells, three human donors (Hemacare) were selected, quickly thawed, resuspended, and aliquoted into a 96-well plate at 1×10⁶ cells/mL. Cells were then washed, Fc blocked if necessary (Innovex), and stained with viability dye (Invitrogen). BGCB463 and its corresponding isotype (B23B251) were diluted in complete media to an initial concentration of 2 μM and 1:3 serial dilutions in duplicate were performed for a dose-response curve. The cells were incubated with molecules at 4° C. or 37° C. for 1 hour. When necessary, incubation with 90% human serum (Sigma) was also performed as described above.
(§2) First, FACS-based binding for GPRC5D and BCMA binding arms of the trispecific molecule was determined by measuring the effective concentration (EC) range from a dose-response curve using a 4-parameter fit at 37° C. for 1 hr. This was assessed using an H929 suite of cells (WT, GPRC5D-KO, BCMA-KO, and GPRC5D/BCMA KO), and a similar MM.1R suite. Cell based EC₅₀ is approximately 13 nM for WT H929 (FIGS. 2A-2D, Table 7) and 2.4 nM for WT MM.1R (FIGS. 3A-3D, Table 8). […] Next, cell-based EC₅₀ was determined for the CD3-binding Fab arm using purified Pan T cells from three random donors. […] Next, dose responsive binding was assessed at 4° C. to remove any potential biological effects. […]

[6] = target: T4, human GPRC5D (G-protein coupled receptor family C group 5 member D) on cells (human, UniProt Q9NZD1 1-345); experiment: flow cytometry, MM.1R BCMA KO cells, 1 h 37C; Run 3
T4 construct: Target on H929 or MM.1R BCMA knockout cells, K562 cells expressing human GPRC5D and HEK293 cells of the cell microarray
T4 sequence (Q9NZD1 whole entry): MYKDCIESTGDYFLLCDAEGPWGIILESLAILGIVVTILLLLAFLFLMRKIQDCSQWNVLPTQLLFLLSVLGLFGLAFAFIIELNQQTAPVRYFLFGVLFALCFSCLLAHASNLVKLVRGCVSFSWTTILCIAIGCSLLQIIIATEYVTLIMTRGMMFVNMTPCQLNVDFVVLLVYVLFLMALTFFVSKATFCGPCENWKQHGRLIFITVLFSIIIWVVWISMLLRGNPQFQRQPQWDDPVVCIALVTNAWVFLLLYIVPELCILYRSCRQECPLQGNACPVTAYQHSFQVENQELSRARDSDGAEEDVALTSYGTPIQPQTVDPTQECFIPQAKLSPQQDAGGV

[7] = target: T3, human CD3 (CD3ε of the TCR/CD3 complex) …; experiment: flow cytometry, human pan T cells, Donor 3, 1 h 37C; Run 1
Method: as §1, §2

[8] = target: T4, human GPRC5D (G-protein coupled …); experiment: flow cytometry on K562 cells expressing human GPRC5D, 1 hr 37 C, average of Runs 1 and 2 (EC50 AVE)
Method: (§3) FIGS. 9A-E. BGCB463 (circles) or negative control B23B251 (triangles) were all incubated with K562 cells expressing human GPRC5D (FIG. 9A), human BCMA (FIG. 9B), cynomolgus GPRC5D (FIG. 9C) or cynomolgus BCMA (FIG. 9D) for 1 hr at 37° C. at a starting concentration of 2 μM. After secondary detection with AF647-anti-human IgG, the MFI signal was analyzed to generate an EC₅₀ and EC₉₀ (FIG. 9E). Data are representative of two independent experiments.
(§4) The GPRC5D (i.e., GC5B680) and BCMA binding arms were assessed for cross-reactivity to cynomolgus monkey as part of the BGCB463 molecule, which uses the identical binding arms as BGCB491. Cross reactivity to cynomolgus monkeys was profiled for both target-binding scFv arms using FACS-based cell binding at 37° C. for 1 hour with K562 stably expressing human or cynomolgus monkey GPRC5D or BCMA. The cell-based EC₅₀ value for the GC5B680 scFv arm was approximately 30 nM against human GPRC5D-expressing cells and about 10-fold weaker (approximately 400 nM) on cynomolgus monkey GPRC5D-expressing cells.

[9] = target: T5, human BCMA (B cell maturation antigen, TNFRSF17) on cells (human, UniProt Q02223 1-184); experiment: flow cytometry on K562 cells expressing human BCMA, 1 hr 37 C, Run 1
T5 construct: whole, on cells; Target on H929 or MM.1R GPRC5D knockout cells, K562 cells expressing human BCMA, HEK293 cells of the cell microarray, and BCMA-only lymphoma lines; also called CD269; surface BCMA
T5 sequence (looked up): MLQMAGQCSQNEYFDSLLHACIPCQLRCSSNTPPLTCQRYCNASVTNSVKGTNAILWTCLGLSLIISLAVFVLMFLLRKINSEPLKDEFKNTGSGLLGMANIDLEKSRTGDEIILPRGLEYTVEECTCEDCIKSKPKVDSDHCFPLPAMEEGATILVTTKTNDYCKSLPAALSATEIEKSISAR
Method: as §3, §4

[10] = target: T3, human CD3 (CD3ε of the TCR/CD3 complex) …; experiment: flow cytometry, human pan T cells, 1 h 4C
Method: as §1, §2

[11] = target: T4, human GPRC5D (G-protein coupled …); experiment: flow cytometry, MM.1R BCMA KO cells, 1 h 37C; Run 4

Binder | Kd [1] [nM] | Kd [2] [nM] | Kd [3] [nM] | Kd [4] [nM] | EC50 [5] [nM] | EC50 [6] [nM] | EC50 [7] [nM] | EC50 [8] [nM] | EC50 [9] [nM] | EC50 [10] [nM] | EC50 [11] [nM]
B1 | 23.3 | 21.6 | 0.175 | 0.212 |  |  |  |  |  |  | 
B2 |  |  |  |  | 360 | 35.3 | 549 | 31.1 | 248 | 50 to 100 | 7.2
